In all, about 310,000 compounds went through this assay and about 2,200 (0.71%) showed an effect of 50% or more. Effects have a minus sign here. The list shows a part of the results.

The target of the test is human ether-à-go-go-related gene (hERG) potassium channel (human, UniProt Q12809). Kind of test: primary screen, population patch clamp on CHO cells stably expressing hERG.
Sequence of human ether-à-go-go-related gene (hERG) potassium channel (Q12809 whole entry, looked up): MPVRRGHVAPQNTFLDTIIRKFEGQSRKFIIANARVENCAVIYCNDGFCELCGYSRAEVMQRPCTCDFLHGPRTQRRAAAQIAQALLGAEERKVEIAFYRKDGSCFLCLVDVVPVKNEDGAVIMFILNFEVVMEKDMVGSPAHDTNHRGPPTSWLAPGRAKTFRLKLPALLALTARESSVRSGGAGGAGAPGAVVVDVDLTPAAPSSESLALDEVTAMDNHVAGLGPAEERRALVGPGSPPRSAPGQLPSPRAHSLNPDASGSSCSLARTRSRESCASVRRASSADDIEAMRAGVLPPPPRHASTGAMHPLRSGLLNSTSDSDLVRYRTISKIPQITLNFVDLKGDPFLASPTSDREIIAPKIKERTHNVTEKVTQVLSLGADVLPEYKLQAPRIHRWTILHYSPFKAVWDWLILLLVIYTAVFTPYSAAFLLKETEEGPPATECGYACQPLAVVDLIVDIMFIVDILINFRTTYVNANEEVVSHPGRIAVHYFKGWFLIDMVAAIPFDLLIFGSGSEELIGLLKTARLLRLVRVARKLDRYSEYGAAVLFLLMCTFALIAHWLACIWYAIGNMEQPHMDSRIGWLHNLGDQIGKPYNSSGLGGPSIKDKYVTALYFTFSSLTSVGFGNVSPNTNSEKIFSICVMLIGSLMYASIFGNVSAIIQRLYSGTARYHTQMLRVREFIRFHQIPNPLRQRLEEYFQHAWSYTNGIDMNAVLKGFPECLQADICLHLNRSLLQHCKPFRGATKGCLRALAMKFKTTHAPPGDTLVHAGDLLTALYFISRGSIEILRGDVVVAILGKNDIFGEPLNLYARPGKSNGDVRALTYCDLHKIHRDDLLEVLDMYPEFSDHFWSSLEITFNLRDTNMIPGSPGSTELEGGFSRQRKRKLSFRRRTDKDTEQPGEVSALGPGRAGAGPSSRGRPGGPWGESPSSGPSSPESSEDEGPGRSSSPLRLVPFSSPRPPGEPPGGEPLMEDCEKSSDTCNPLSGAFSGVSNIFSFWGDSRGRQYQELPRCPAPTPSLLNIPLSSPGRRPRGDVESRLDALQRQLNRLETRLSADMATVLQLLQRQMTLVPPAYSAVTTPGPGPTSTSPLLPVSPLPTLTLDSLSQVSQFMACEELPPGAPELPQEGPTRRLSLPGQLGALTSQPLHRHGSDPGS
Turning to `COc1cc(OC)cc(-c2c(-c3ccc(F)cc3)c3cc(-c4cnc(OC)nc4)ccc3n2C)c1`, the “hERG current change (%, negative = inhibition) at 1uM” value was 14.7%.

In the case of `COc1ccc(/C=C2\SC(=S)N(CCCCCC(=O)Nc3cc(C)on3)C2=O)cc1OC`, the “hERG current change (%, negative = inhibition) at 1uM” value is reported as 28.2%.

On to `O=C(NC(=S)Nc1ccc(-c2nc3ncccc3o2)cc1)c1ccccc1F`, for which the “hERG current change (%, negative = inhibition) at 1uM” value was 10.5%.

With `CN(C)CCN(C(=O)CN1C(=O)c2ccccc2C1=O)c1nc2cc3c(cc2s1)OCCO3.Cl`, the “hERG current change (%, negative = inhibition) at 1uM” value was -10.2%.

As for `COC(=O)c1sc(NC(=O)COc2ccccc2C)nc1C`, the “hERG current change (%, negative = inhibition) at 1uM” value was -4.42%.

With `CC1=C(C(=O)Nc2ccccc2)C(c2ccc(Cl)cc2)n2c(s/c(=C/c3cccc(OCC(=O)O)c3)c2=O)=N1` (stereo not shown), the “hERG current change (%, negative = inhibition) at 1uM” value was found to be 10.5%.

Turning to `Cn1c(N)c(C(=O)COC(=O)COc2ccccc2C#N)c(=O)n(C)c1=O`, the “hERG current change (%, negative = inhibition) at 1uM” value amounted to 4.43%.

As for `Cn1cc(CN(CCO)Cc2cccs2)c(-c2ccccc2F)n1`, the “hERG current change (%, negative = inhibition) at 1uM” value was found to be 3.19%.

As to `Cc1ccccc1-c1nc(CN2CCC(C(=O)N3CCN(c4ccccn4)CC3)CC2)c(C)o1`, the “hERG current change (%, negative = inhibition) at 1uM” value is given as -14.6%.

With `CS(=O)(=O)N1CCN(c2ccccc2NC(=O)c2ccc([N+](=O)[O-])o2)CC1`, the “hERG current change (%, negative = inhibition) at 1uM” value is 14.6%.

With `Cc1ccc(-n2c(SCC(=O)NNC(=S)Nc3ccccc3)nc3ccccc3c2=O)cc1`, the “hERG current change (%, negative = inhibition) at 1uM” value is on record as 10.8%.

As to `COc1ccc(OC)c(-c2oc3ccccc3c(=O)c2O)c1`, the “hERG current change (%, negative = inhibition) at 1uM” value was determined as 3.89%.

For the molecule `COc1ccccc1N1CCN(C(c2cccs2)C(C)NC(=O)c2cccs2)CC1` (stereo not shown), the “hERG current change (%, negative = inhibition) at 1uM” value was 6.99%.

Regarding `COC(=O)c1cc2cc(OC)ccc2n1C`, the “hERG current change (%, negative = inhibition) at 1uM” value is 6.28%.

Turning to `CC(C)CN1C(=O)c2ccc(C(=O)Nc3c[nH]c(=O)[nH]c3=O)cc2C1=O`, the “hERG current change (%, negative = inhibition) at 1uM” value is 14.9%.

For `CCOC(=O)C1=C(C)N(CCO)C(=O)NC1c1cccc(O)c1` (stereo not shown), the “hERG current change (%, negative = inhibition) at 1uM” value is listed as 15.3%.

Consider `Cc1cccc(C)c1OCC(=O)Nc1cccc(C(=O)O)c1`, for which the “hERG current change (%, negative = inhibition) at 1uM” value came out at 11.6%.

For the molecule `CCOc1ccc(NC(=O)Nc2ccc3c(c2)N(C)C(=O)CS3)cc1`, the “hERG current change (%, negative = inhibition) at 1uM” value was -2%.

For `CCOc1ccc(NCc2nnc(SCc3ccccc3Cl)n2-c2ccccc2)cc1`, the “hERG current change (%, negative = inhibition) at 1uM” value is on record as 6.38%.

For `CN(CC(=O)NCc1ccncc1)S(=O)(=O)c1ccc(F)cc1`, the “hERG current change (%, negative = inhibition) at 1uM” value stood at 5.71%.

For `Cc1occc1-c1nnc(SCC(=O)NCc2ccco2)n1CC(C)C`, the “hERG current change (%, negative = inhibition) at 1uM” value is on record as 11%.

On to `COc1ccc(S(=O)(=O)N2CCCN(CC(=O)Nc3ccc4c(c3)OCO4)CC2)cc1`, for which the “hERG current change (%, negative = inhibition) at 1uM” value is listed as -15.1%.

Consider `Cc1ccc(C(=O)Nc2cccc(S(=O)(=O)N3CCCCC3)c2)cc1[N+](=O)[O-]`, for which the “hERG current change (%, negative = inhibition) at 1uM” value is listed as 2.01%.

As for `CC(=O)c1sc(N/N=C/c2ccc(C(C)C)cc2)nc1C`, the “hERG current change (%, negative = inhibition) at 1uM” value is given as 15.4%.

With `Cc1nn(-c2ccccc2)c(C)c1C(=O)Nc1nnc(-c2ccco2)o1`, the “hERG current change (%, negative = inhibition) at 1uM” value is -5%.

Regarding `CC(=O)c1c(Cl)nc2ccc(Br)cc2c1-c1ccccc1`, the “hERG current change (%, negative = inhibition) at 1uM” value is 21.9%.

With `COc1ccc2oc(=O)c(NC(=O)C3CCCCC3)cc2c1`, the “hERG current change (%, negative = inhibition) at 1uM” value is 5.32%.

On to `Cc1ccc(NC(=S)NC(=O)/C=C/c2ccco2)c(O)c1`, for which the “hERG current change (%, negative = inhibition) at 1uM” value was determined as 5.75%.

Consider `CCc1ccc(-c2cc(C)no2)cc1S(=O)(=O)N1CCN(c2ccc(C(C)=O)cc2)CC1`, for which the “hERG current change (%, negative = inhibition) at 1uM” value is 4.82%.

With `Brc1ccc(C2Nc3cccc4cccc(c34)N2)o1`, the “hERG current change (%, negative = inhibition) at 1uM” value turned out to be 18.5%.

Turning to `C/C(=C\[C@@H](NP(=O)(c1ccccc1)c1ccccc1)c1ccccc1)CO[Si](c1ccccc1)(c1ccccc1)C(C)(C)C`, the “hERG current change (%, negative = inhibition) at 1uM” value is reported as 9.91%.

Regarding `Cl.c1csc(CNCc2ccncc2)c1`, the “hERG current change (%, negative = inhibition) at 1uM” value is given as -5.42%.

In the case of `COc1ccc(Cn2c(C3CC3)nc3ccc(NC(=O)c4cccnc4)cc3c2=O)cc1`, the “hERG current change (%, negative = inhibition) at 1uM” value is recorded as -4.92%.

As for `COc1ccc(-n2c(=O)c3ccccc3n(Cc3ccc(F)cc3)c2=O)cc1OC`, the “hERG current change (%, negative = inhibition) at 1uM” value came out at 21.2%.

With `CC(Sc1cccc[n+]1[O-])C(=O)Nc1cccc(S(=O)(=O)N2CCOCC2)c1` (stereo not shown), the “hERG current change (%, negative = inhibition) at 1uM” value was 9.93%.

As to `Cn1c(=O)c2c(ncn2Cc2ccc(Cl)c(Cl)c2)n(C)c1=O`, the “hERG current change (%, negative = inhibition) at 1uM” value is 13.2%.

For `O=C(O)CCC(=O)NN1C(=O)c2ccccc2NC1c1ccco1` (stereo not shown), the “hERG current change (%, negative = inhibition) at 1uM” value was determined as 17.1%.

Turning to `Cc1ccc(-c2nc3cc(C)ccc3o2)cc1`, the “hERG current change (%, negative = inhibition) at 1uM” value stood at 15.8%.

In the case of `COC(=O)CC1Oc2ccccc2N(Cc2ccc(C)cc2)C1=O` (stereo not shown), the “hERG current change (%, negative = inhibition) at 1uM” value came out at 3.03%.

With `CC(=O)c1c(N)[nH]c(-c2ccccc2)nc1=S`, the “hERG current change (%, negative = inhibition) at 1uM” value was determined as 0.135%.

In the case of `COc1ccc(C(C(=O)NC(C)(C)C)N(C(=O)Cn2nnc3ccccc32)c2cccc(C(C)=O)c2)cc1O` (stereo not shown), the “hERG current change (%, negative = inhibition) at 1uM” value was found to be 0.152%.

Take `COC(=O)N[C@@H]1C[C@H]2[C@@H]3CC[C@H]4C[C@@H](OC)CC[C@]4(C)[C@H]3CC[C@]12C`: the “hERG current change (%, negative = inhibition) at 1uM” value was found to be 17.1%.

Consider `COc1ccc(Nc2nc(C)nc3c2oc2ccccc23)c(OC)c1`, for which the “hERG current change (%, negative = inhibition) at 1uM” value was 0.0921%.
